Some test systems named below: HCC-1143; HCC-1187; MDA-468; SUM-149.
What all share (assay): cell viability relative to vehicle (% of vehicle); basal-like triple-negative breast cancer lines; higher = less cytotoxic
Holding throughout (settings): 10 µM; 72 h

Among the data in the supplement of paper PMC8512760 are cell viability values, retold here.

Some of the results follow. Most values come without repeats; read them as rough.
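Note: stably firefly luciferase-GFP labeled cells in 96-well plates, viability read as luciferase photon flux after d-luciferin addition, treated wells normalized to vehicle wells, single-dose high-throughput screen.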

As for `Cc1ccnc(NS(=O)(=O)c2ccc(N)cc2)n1` [Sulfamerazine], the cell viability with HCC-1143 was 78.3; in the assay on HCC-1187, 74.8; in the assay on MDA-468 it was 96.4; in the assay with SUM-149 it was 99.9.

Turning to `COc1cc2c(Nc3ccc(Br)cc3F)ncnc2cc1OCC1CCN(C)CC1` [Vandetanib (ZD6474)], the cell viability with HCC-1143 turned out to be 51; in the assay on HCC-1187 it was 54.5; in the assay on MDA-468 it was 66.4; with SUM-149 it was 31.2.

Take `Clc1ccc(C(c2ccccc2Cl)C(Cl)Cl)cc1` (stereo not drawn) [Mitotane (Lsodren)]: the cell viability with HCC-1143 worked out at 88.5; with HCC-1187 it was 125; with MDA-468, 121; in the assay with SUM-149 it was 105.

Take `COC1=CC(=O)C[C@@H](C)[C@]12Oc1c(Cl)c(OC)cc(OC)c1C2=O` [Griseofulvin]: the cell viability amounted to 108 in the assay on HCC-1143, 66.9 with HCC-1187, 116 in the assay with MDA-468 and 101 in the assay on SUM-149.

In the case of `C#CCC(Cc1cnc2nc(N)nc(N)c2n1)c1ccc(C(=O)NC(CCC(=O)O)C(=O)O)cc1` (stereo not drawn) [Pralatrexate], the cell viability in the assay with HCC-1143 is 103; in the assay on HCC-1187 it was 60.5; in the assay on MDA-468 it was 58.1; with SUM-149, 120.

As for `O=c1ncnc2[nH][nH]cc1-2` [Allopurinol], the cell viability in the assay on HCC-1143 was determined as 75.9; with HCC-1187 it was 105; in the assay with MDA-468, 92; with SUM-149, 91.9.

With `OCC1OC(O)C(O)C(O)C1O` [Dextrose (D-glucose)], the cell viability is 123 in the assay on HCC-1143, 123 with HCC-1187, 114 in the assay on MDA-468 and 105 in the assay on SUM-149.

In the case of `CC1(COc2ccc3c(c2)ncn3-c2ccc3cccc(N4CCC(N)CC4)c3n2)COC1`, the cell viability with HCC-1143 is 43.1; with HCC-1187, 26.6; with MDA-468 it was 30.4; in the assay on SUM-149, 48.2.

With `CC12C=CC(=O)NC1CCC1C2CCC2(C)C(C(=O)Nc3cc(C(F)(F)F)ccc3C(F)(F)F)CCC12` (stereo not drawn) [Dutasteride], the cell viability in the assay on HCC-1143 was determined as 81.5; in the assay on HCC-1187, 87.7; in the assay with MDA-468, 86.8; in the assay with SUM-149, 106.

On to `CCCCCCCCc1ccc(CCC(N)(CO)CO)cc1.Cl` [Fingolimod (FTY720)], for which the cell viability stood at 74.5 in the assay with HCC-1143, 59.9 in the assay with HCC-1187, 113 in the assay with MDA-468 and 86.4 in the assay with SUM-149.

`COC1C(O)CC(=O)OC(C)CC=CC=CC(OC2CCC(N(C)C)C(C)O2)C(C)CC(CC=O)C1OC1OC(C)C(OC2CC(C)(O)C(O)C(C)O2)C(N(C)C)C1O` (stereo not drawn) [Spiramycin]: the cell viability is 102 with HCC-1143, 112 in the assay on HCC-1187, 102 in the assay with MDA-468 and 116 in the assay on SUM-149.

Take `O=C(O)c1cccnc1Nc1cccc(C(F)(F)F)c1` [Niflumic acid]: the cell viability worked out at 78.6 in the assay with HCC-1143, 99.3 in the assay with HCC-1187, 95.5 in the assay on MDA-468 and 105 with SUM-149.

As to `N=C(NCCCCCCNC(=N)NC(=N)Nc1ccc(Cl)cc1)NC(=N)Nc1ccc(Cl)cc1` [Chlorhexidine digluconate], the cell viability with HCC-1143 is 95.9; in the assay with HCC-1187 it was 86.6; in the assay on MDA-468, 102; in the assay with SUM-149, 115.

For the compound `Cl.c1ccc2c(c1)CCCC2C1=NCCN1` (stereo not drawn) [Tetrahydrozoline HCl], the cell viability stood at 74.9 in the assay with HCC-1143, 98.8 in the assay on HCC-1187, 106 with MDA-468 and 87.1 with SUM-149.

As for `C=CC(=O)Nc1cc(Nc2nccc(-c3cn(C)c4ccccc34)n2)c(OC)cc1N(C)CCN(C)C`, the cell viability in the assay with HCC-1143 stood at 35.5; in the assay with HCC-1187 it was 23.9; with MDA-468, 28.8; in the assay with SUM-149, 32.1.

For `CC[C@@]1(O)C(=O)OCc2c1cc1n(c2=O)Cc2cc3c(CN(C)C)c(O)ccc3nc2-1.Cl` [Topotecan HCl], the cell viability was found to be 31.8 in the assay on HCC-1143, 34 with HCC-1187, 31.7 in the assay on MDA-468 and 36.5 in the assay on SUM-149.

For `CCCNCC(O)COc1ccccc1C(=O)CCc1ccccc1.Cl` (stereo not drawn) [Propafenone HCl], the cell viability in the assay on HCC-1143 was 70.6; with HCC-1187, 108; in the assay with MDA-468, 143; with SUM-149, 99.4.

As to `CO[C@H]1C[C@@H]2CC[C@@H](C)[C@@](O)(O2)C(=O)C(=O)N2CCCC[C@H]2C(=O)O[C@H]([C@H](C)C[C@@H]2CC[C@@H](O)[C@H](OC)C2)CC(=O)[C@H](C)/C=C(\C)[C@@H](O)[C@@H](OC)C(=O)[C@H](C)C[C@H](C)/C=C/C=C/C=C/1C` [Rapamycin (Sirolimus)], the cell viability was 93.6 in the assay on HCC-1143, 84 in the assay on HCC-1187, 72.4 in the assay on MDA-468 and 130 in the assay on SUM-149.

With `Br.CN1CCCC1Cc1c[nH]c2ccc(CCS(=O)(=O)c3ccccc3)cc12` (stereo not drawn) [Eletriptan HBr], the cell viability in the assay on HCC-1143 worked out at 74.8; in the assay with HCC-1187 it was 94.8; with MDA-468, 116; with SUM-149, 106.

In the case of `CN(C)CCN(Cc1ccccc1)c1ccccn1.Cl` [Tripelennamine HCl], the cell viability was determined as 73.6 with HCC-1143, 65.8 with HCC-1187, 116 in the assay with MDA-468 and 96.2 in the assay on SUM-149.

Turning to `O=C1NC(=O)[C@@H](c2c[nH]c3ccccc23)[C@H]1c1cn2c3c(cccc13)CCC2` [Tivantinib (ARQ 197)], the cell viability turned out to be 50.7 with HCC-1143, 45 in the assay with HCC-1187, 48 in the assay with MDA-468 and 113 in the assay on SUM-149.

Take `O=C(O)C=CC(=O)O.OCCOCCN1CCN(C2=Nc3ccccc3Sc3ccccc32)CC1.OCCOCCN1CCN(C2=Nc3ccccc3Sc3ccccc32)CC1` [Quetiapine Fumarate]: the cell viability in the assay on HCC-1143 came to 114; in the assay on HCC-1187, 126; in the assay on MDA-468, 99.3; with SUM-149, 97.8.
